Among the data in the supplement of paper PMC10369915 are enrichment score values, retold here.

Some of the results follow. Cut-off read from the data, not from the text of the source: active = 3.2 or more and inactive = the rest. Only a few entries rise above the background.
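Note: displayed peptides selected on beads carrying the immobilized SH2 domain, with library peptides lacking any tyrosine serving as negative controls.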

In one assay the target is SHP2 C-SH2 domain E139D. As to the kind of experiment: enrichment score (SH2-bound / input frequency) (ratio); bacterial display of known human phosphotyrosine sites (pTyr-Var adds point mutants) read by sequencing; higher = stronger binding; tyrosines were phosphorylated by kinases first. The conditions noted are these: peptide library: pTyr-Var.
With YLEKYYKFGSR [NNMT_Y25], the enrichment score is inactive: 0.96.
WIPIQDPIISE [NOG_Y222_Y222D]: the enrichment score was inactive: 1.38.
As to RFWPRYVKVGS [NOG_Y172], the enrichment score was inactive: 0.463.
Same read-out and setting: in the case of CLEKEYFDQHF [NPC1_Y394_R389C] it was inactive: 1.03; in that of DYLEKYYKFGC [NNMT_Y24_S29C], inactive: 1.22.
Turning to GHGEEYPVAGA [NOTCH3_Y2221_A2223V], the enrichment score was inactive: 0.462.
In the case of FTAVGYHKHFT [NOMO1_Y1137_I1141F], the enrichment score was active: 3.87.
Regarding DFLEKYFKFGC [NNMT_Y24_S29C_YF], the enrichment score was inactive: 1.14.
Consider FTAVGYHKHIT [NOMO1_Y1137], for which the enrichment score is inactive: 2.81.
As for TEAEPYYRSLR [NPHS1_Y1138], the enrichment score was inactive: 0.603.
In the case of IDAVCYFRMEN [NPHS2_Y194_I192V_YF], the enrichment score was inactive: 1.54.
The same measure, in the same setting: in the case of VFAPDYIAGVS [NOB1_Y366] it was inactive: 1.06.
As to WIPNQYPIISE [NOG_Y222_I220N], the enrichment score is inactive: 1.28.
On to DAICYYRMENA [NPHS2_Y195], for which the enrichment score was inactive: 1.09.
Consider IDAICYFRMEN [NPHS2_Y194_YF], for which the enrichment score is inactive: 1.87.
The same measure, in the same setting: for NVVQEYERVII [NPHS2_Y131_K126N] the value was inactive: 0.882.
As to IDAVCYYRMEN [NPHS2_Y194_I192V], the enrichment score was inactive: 0.923.
Consider WIPIQYPIISE [NOG_Y222], for which the enrichment score is inactive: 1.66.
As to TEAEPYFRSLR [NPHS1_Y1138_YF], the enrichment score is inactive: 0.505.

The target of the next assay is SHP2 C-SH2 domain wild-type. The description is as above. Particulars: peptide library: pTyr-Var.
YLEKYYKFGSR [NNMT_Y25]: the enrichment score was inactive: 0.644.
Take WIPIQDPIISE [NOG_Y222_Y222D]: the enrichment score is inactive: 1.27.
Turning to RFWPRYVKVGS [NOG_Y172], the enrichment score is inactive: 0.37.
Take CLEKEYFDQHF [NPC1_Y394_R389C]: the enrichment score was inactive: 1.02.
Turning to DYLEKYYKFGC [NNMT_Y24_S29C], the enrichment score was inactive: 1.46.
With GHGEEYPVAGA [NOTCH3_Y2221_A2223V], the enrichment score is inactive: 0.377.
Consider FTAVGYHKHFT [NOMO1_Y1137_I1141F], for which the enrichment score is inactive: 3.14.
As to DFLEKYFKFGC [NNMT_Y24_S29C_YF], the enrichment score was inactive: 1.46.
FTAVGYHKHIT [NOMO1_Y1137]: the enrichment score was inactive: 2.33.
Consider TEAEPYYRSLR [NPHS1_Y1138], for which the enrichment score is inactive: 0.51.
Consider IDAVCYFRMEN [NPHS2_Y194_I192V_YF], for which the enrichment score is inactive: 2.05.
As for VFAPDYIAGVS [NOB1_Y366], the enrichment score was inactive: 1.09.
Turning to WIPNQYPIISE [NOG_Y222_I220N], the enrichment score is inactive: 1.14.
With DAICYYRMENA [NPHS2_Y195], the enrichment score is inactive: 1.33.
For IDAICYFRMEN [NPHS2_Y194_YF], the enrichment score is inactive: 2.24.
NVVQEYERVII [NPHS2_Y131_K126N]: the enrichment score was inactive: 0.8.
As for IDAVCYYRMEN [NPHS2_Y194_I192V], the enrichment score was inactive: 1.28.
Turning to WIPIQYPIISE [NOG_Y222], the enrichment score was inactive: 1.58.
Turning to TEAEPYFRSLR [NPHS1_Y1138_YF], the enrichment score is inactive: 0.519.

Another assay deals with SHP2 N-SH2 domain L43F. Described as above. The conditions noted are these: peptide library: pTyr-Var.
For the molecule YLEKYYKFGSR [NNMT_Y25], the enrichment score was inactive: 0.731.
Turning to WIPIQDPIISE [NOG_Y222_Y222D], the enrichment score was inactive: 1.43.
Turning to RFWPRYVKVGS [NOG_Y172], the enrichment score was inactive: 0.354.
With CLEKEYFDQHF [NPC1_Y394_R389C], the enrichment score is inactive: 0.916.
In the case of DYLEKYYKFGC [NNMT_Y24_S29C], the enrichment score was inactive: 1.02.
On the same count and under the same terms, for GHGEEYPVAGA [NOTCH3_Y2221_A2223V] the value was inactive: 0.369; for FTAVGYHKHFT [NOMO1_Y1137_I1141F], active: 3.34.
DFLEKYFKFGC [NNMT_Y24_S29C_YF]: the enrichment score was inactive: 1.17.
In the case of FTAVGYHKHIT [NOMO1_Y1137], the enrichment score was inactive: 2.05.
Take TEAEPYYRSLR [NPHS1_Y1138]: the enrichment score is inactive: 0.514.
Regarding IDAVCYFRMEN [NPHS2_Y194_I192V_YF], the enrichment score was inactive: 1.62.
Take VFAPDYIAGVS [NOB1_Y366]: the enrichment score was inactive: 1.24.
With WIPNQYPIISE [NOG_Y222_I220N], the enrichment score is inactive: 1.3.
With DAICYYRMENA [NPHS2_Y195], the enrichment score is inactive: 1.04.
In the case of IDAICYFRMEN [NPHS2_Y194_YF], the enrichment score is inactive: 2.01.
As to NVVQEYERVII [NPHS2_Y131_K126N], the enrichment score was inactive: 0.793.
Take IDAVCYYRMEN [NPHS2_Y194_I192V]: the enrichment score was inactive: 0.929.
For the molecule WIPIQYPIISE [NOG_Y222], the enrichment score is inactive: 2.21.
For TEAEPYFRSLR [NPHS1_Y1138_YF], the enrichment score is inactive: 0.569.

For a further assay, the target named is SHP2 N-SH2 domain T42A. Described as above. Particulars: peptide library: pTyr-Var.
As to YLEKYYKFGSR [NNMT_Y25], the enrichment score is inactive: 0.534.
Take WIPIQDPIISE [NOG_Y222_Y222D]: the enrichment score was inactive: 1.25.
For RFWPRYVKVGS [NOG_Y172], the enrichment score is inactive: 0.567.
For CLEKEYFDQHF [NPC1_Y394_R389C], the enrichment score was inactive: 0.958.
On to DYLEKYYKFGC [NNMT_Y24_S29C], for which the enrichment score was inactive: 1.15.
Still for that read-out and setting: in the case of GHGEEYPVAGA [NOTCH3_Y2221_A2223V] it was inactive: 0.39; in that of FTAVGYHKHFT [NOMO1_Y1137_I1141F], inactive: 2.97.
On to DFLEKYFKFGC [NNMT_Y24_S29C_YF], for which the enrichment score was inactive: 0.911.
As for FTAVGYHKHIT [NOMO1_Y1137], the enrichment score was inactive: 2.29.
On to TEAEPYYRSLR [NPHS1_Y1138], for which the enrichment score was inactive: 0.45.
Turning to IDAVCYFRMEN [NPHS2_Y194_I192V_YF], the enrichment score was inactive: 1.84.
The same measure, in the same setting: in the case of VFAPDYIAGVS [NOB1_Y366] it was inactive: 0.863; in that of WIPNQYPIISE [NOG_Y222_I220N], inactive: 1.3.
DAICYYRMENA [NPHS2_Y195]: the enrichment score was inactive: 0.939.
Regarding IDAICYFRMEN [NPHS2_Y194_YF], the enrichment score was inactive: 1.67.
As for NVVQEYERVII [NPHS2_Y131_K126N], the enrichment score is inactive: 0.667.
IDAVCYYRMEN [NPHS2_Y194_I192V]: the enrichment score was inactive: 0.848.
Same read-out and setting: for WIPIQYPIISE [NOG_Y222] the value was inactive: 1.84.
Take TEAEPYFRSLR [NPHS1_Y1138_YF]: the enrichment score was inactive: 0.493.

For the next assay, the target named is SHP2 N-SH2 domain T52S. Described as above. The conditions noted are these: peptide library: pTyr-Var.
Consider YLEKYYKFGSR [NNMT_Y25], for which the enrichment score is inactive: 0.736.
On the same count and under the same terms, for WIPIQDPIISE [NOG_Y222_Y222D] the value was inactive: 1.38; for RFWPRYVKVGS [NOG_Y172], inactive: 0.411; for CLEKEYFDQHF [NPC1_Y394_R389C], inactive: 0.836.
On the same count and under the same terms, in the case of DYLEKYYKFGC [NNMT_Y24_S29C] it was inactive: 1.03; in that of GHGEEYPVAGA [NOTCH3_Y2221_A2223V], inactive: 0.523.
Still for that read-out and setting: for FTAVGYHKHFT [NOMO1_Y1137_I1141F] the value was active: 4.1; for DFLEKYFKFGC [NNMT_Y24_S29C_YF], inactive: 0.842; for FTAVGYHKHIT [NOMO1_Y1137], inactive: 2.43.
Regarding TEAEPYYRSLR [NPHS1_Y1138], the enrichment score was inactive: 0.438.
Take IDAVCYFRMEN [NPHS2_Y194_I192V_YF]: the enrichment score was inactive: 1.78.
For VFAPDYIAGVS [NOB1_Y366], the enrichment score is inactive: 0.986.
Consider WIPNQYPIISE [NOG_Y222_I220N], for which the enrichment score is inactive: 1.19.
For DAICYYRMENA [NPHS2_Y195], the enrichment score is inactive: 0.897.
For IDAICYFRMEN [NPHS2_Y194_YF], the enrichment score was inactive: 1.75.
For the molecule NVVQEYERVII [NPHS2_Y131_K126N], the enrichment score was inactive: 0.816.
Take IDAVCYYRMEN [NPHS2_Y194_I192V]: the enrichment score was inactive: 0.7.
Regarding WIPIQYPIISE [NOG_Y222], the enrichment score is inactive: 2.48.
Still for that read-out and setting: for TEAEPYFRSLR [NPHS1_Y1138_YF] the value was inactive: 0.59.

The next assay deals with SHP2 N-SH2 domain wild-type. The description is as above. The conditions noted are these: peptide library: pTyr-Var.
Take YLEKYYKFGSR [NNMT_Y25]: the enrichment score is inactive: 0.706.
Regarding WIPIQDPIISE [NOG_Y222_Y222D], the enrichment score was inactive: 1.15.
In the case of RFWPRYVKVGS [NOG_Y172], the enrichment score is inactive: 0.385.
As for CLEKEYFDQHF [NPC1_Y394_R389C], the enrichment score is inactive: 0.944.
Turning to DYLEKYYKFGC [NNMT_Y24_S29C], the enrichment score is inactive: 1.51.
As to GHGEEYPVAGA [NOTCH3_Y2221_A2223V], the enrichment score was inactive: 0.462.
In the case of FTAVGYHKHFT [NOMO1_Y1137_I1141F], the enrichment score is inactive: 3.01.
On to DFLEKYFKFGC [NNMT_Y24_S29C_YF], for which the enrichment score is inactive: 1.05.
Still for that read-out and setting: for FTAVGYHKHIT [NOMO1_Y1137] the value was inactive: 2.72; for TEAEPYYRSLR [NPHS1_Y1138], inactive: 0.563; for IDAVCYFRMEN [NPHS2_Y194_I192V_YF], inactive: 1.78.
As for VFAPDYIAGVS [NOB1_Y366], the enrichment score is inactive: 1.12.
With WIPNQYPIISE [NOG_Y222_I220N], the enrichment score is inactive: 1.21.
DAICYYRMENA [NPHS2_Y195]: the enrichment score is inactive: 1.86.
In the case of IDAICYFRMEN [NPHS2_Y194_YF], the enrichment score was inactive: 2.74.
On to NVVQEYERVII [NPHS2_Y131_K126N], for which the enrichment score is inactive: 0.814.
Consider IDAVCYYRMEN [NPHS2_Y194_I192V], for which the enrichment score was inactive: 1.35.
Same read-out and setting: for WIPIQYPIISE [NOG_Y222] the value was inactive: 1.75.
Consider TEAEPYFRSLR [NPHS1_Y1138_YF], for which the enrichment score is inactive: 0.455.
